Among all 310,000 compounds or so, about 14,000 (4.5%) showed an effect of 50% or more. The effect is printed as a negative number. The list shows a part of the results.
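Also: peak tail current of the secondary pulse compared with the same well before compound.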

For the assay, the target named is human ether-à-go-go-related gene (hERG) potassium channel (human, UniProt Q12809). Description: primary screen, population patch clamp on CHO cells stably expressing hERG.
Chain of human ether-à-go-go-related gene (hERG) potassium channel (Q12809 whole entry, looked up): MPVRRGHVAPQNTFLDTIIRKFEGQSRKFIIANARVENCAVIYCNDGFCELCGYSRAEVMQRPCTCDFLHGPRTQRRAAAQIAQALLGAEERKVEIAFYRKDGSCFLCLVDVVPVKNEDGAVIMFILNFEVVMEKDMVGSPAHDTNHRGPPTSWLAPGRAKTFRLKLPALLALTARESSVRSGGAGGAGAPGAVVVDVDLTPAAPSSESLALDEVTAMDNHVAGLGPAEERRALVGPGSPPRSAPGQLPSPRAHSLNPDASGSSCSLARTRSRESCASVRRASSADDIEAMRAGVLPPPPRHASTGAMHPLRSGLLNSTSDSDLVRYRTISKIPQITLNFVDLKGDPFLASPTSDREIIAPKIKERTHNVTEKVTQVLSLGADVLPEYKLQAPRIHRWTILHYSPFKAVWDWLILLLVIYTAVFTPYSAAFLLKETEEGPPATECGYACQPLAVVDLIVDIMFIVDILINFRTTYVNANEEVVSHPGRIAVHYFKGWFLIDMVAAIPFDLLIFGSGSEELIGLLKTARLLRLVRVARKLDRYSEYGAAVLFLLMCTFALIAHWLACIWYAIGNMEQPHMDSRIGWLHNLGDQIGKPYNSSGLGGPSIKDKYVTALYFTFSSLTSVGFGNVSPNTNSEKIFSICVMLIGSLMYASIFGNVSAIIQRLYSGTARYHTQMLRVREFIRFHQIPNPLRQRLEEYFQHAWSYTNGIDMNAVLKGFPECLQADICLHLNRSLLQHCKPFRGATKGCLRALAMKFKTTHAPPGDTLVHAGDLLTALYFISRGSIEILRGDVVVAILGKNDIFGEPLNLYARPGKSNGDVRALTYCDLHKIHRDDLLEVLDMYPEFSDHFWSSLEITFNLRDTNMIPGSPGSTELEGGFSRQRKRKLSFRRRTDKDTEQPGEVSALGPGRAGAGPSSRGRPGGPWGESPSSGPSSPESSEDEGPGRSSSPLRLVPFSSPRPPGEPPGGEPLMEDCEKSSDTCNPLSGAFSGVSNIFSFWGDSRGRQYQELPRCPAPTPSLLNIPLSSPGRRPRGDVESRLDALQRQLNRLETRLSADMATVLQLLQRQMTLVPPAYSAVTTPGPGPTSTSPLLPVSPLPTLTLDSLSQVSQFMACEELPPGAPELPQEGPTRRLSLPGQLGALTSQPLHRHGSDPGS
Turning to `CCCC1CCC(C(=O)Nn2c(C)nc3ccccc3c2=O)CC1` (centres unmarked), the “hERG current change (%, negative = inhibition) at 10uM” value is -24.1%.

For `CC1CCc2nc(NC(=O)Cc3cccs3)sc2C1` (centres unmarked), the “hERG current change (%, negative = inhibition) at 10uM” value was 6.69%.

With `CCN(CC)S(=O)(=O)c1ccc(Cl)c(C(=O)NC2CCCC2)c1`, the “hERG current change (%, negative = inhibition) at 10uM” value is -15.1%.

As to `Cc1nnc2c(NC(C)C)nc3ccccc3n12`, the “hERG current change (%, negative = inhibition) at 10uM” value is -26.8%.

In the case of `Cn1c(SCc2ccccc2)nnc1-c1ccncc1`, the “hERG current change (%, negative = inhibition) at 10uM” value is recorded as -11.2%.

As for `COc1ccc(-n2c(=O)c3c(C)c(C)sc3n(Cc3ccc(F)cc3)c2=O)c(OC)c1`, the “hERG current change (%, negative = inhibition) at 10uM” value was 0.784%.

On to `Cc1cc(/C=C2\SC(=S)NC2=O)c(C)n1-c1ccc(O)cc1`, for which the “hERG current change (%, negative = inhibition) at 10uM” value is 12.8%.

Regarding `COc1ccc(-c2ccc3c(c2)S(=O)(=O)c2cccc(C(=O)NCc4ccccc4Cl)c2C3=O)cc1OC`, the “hERG current change (%, negative = inhibition) at 10uM” value is 15.3%.

Regarding `COc1cc(/C=N\Nc2nc(-c3ccc(C)cc3)c(NC(C)=O)s2)ccc1O`, the “hERG current change (%, negative = inhibition) at 10uM” value was -8.59%.

For `COc1ccc(CNC(=O)CN(Cc2ccco2)C(=O)CNS(=O)(=O)c2ccc(F)cc2)cc1`, the “hERG current change (%, negative = inhibition) at 10uM” value is on record as -34.1%.

`O=C(c1ccc(F)cc1)C(Cc1ccccc1)N1CCCCC1` (centres unmarked): the “hERG current change (%, negative = inhibition) at 10uM” value came to 1.82%.

As for `Cc1c(C#N)c2ccccc2n1C`, the “hERG current change (%, negative = inhibition) at 10uM” value is listed as 15.3%.

Consider `CCOc1ccc(NC(=O)COC(=O)c2cc(=O)c3ccccc3o2)cc1`, for which the “hERG current change (%, negative = inhibition) at 10uM” value came out at 15.2%.

With `CCc1nc(SCC(=O)NNC(=O)c2ccc(C)cc2)c2ccccc2n1`, the “hERG current change (%, negative = inhibition) at 10uM” value stood at 4.89%.

As to `CCCCCc1ccc(-c2ccc(/C=C/C(N)=O)cc2)nc1`, the “hERG current change (%, negative = inhibition) at 10uM” value is listed as 15.7%.

With `O=C(Cc1cccs1)Nc1nncs1`, the “hERG current change (%, negative = inhibition) at 10uM” value came to 7.33%.

`COc1ccc(NS(=O)(=O)c2cccc(C(=O)NNC(=O)CN3C(=O)NC(C)(C)C3=O)c2)cc1`: the “hERG current change (%, negative = inhibition) at 10uM” value was found to be 12.5%.

For `O=S(=O)(Nc1ccc2c(c1)OCCO2)c1ccc(F)c(F)c1`, the “hERG current change (%, negative = inhibition) at 10uM” value was -21%.

Take `COc1cc(C(=O)Nc2nc3ccc(S(C)(=O)=O)cc3s2)cc(OC)c1C`: the “hERG current change (%, negative = inhibition) at 10uM” value is recorded as 15.9%.

Consider `O=C(O)c1ccc(CNC(=O)C2CCCN2C(=O)OCc2ccccc2)cc1` (centres unmarked), for which the “hERG current change (%, negative = inhibition) at 10uM” value amounted to 7.03%.

Turning to `Cc1ccc(OCCCCCN2CCOCC2)cc1`, the “hERG current change (%, negative = inhibition) at 10uM” value was found to be 4.39%.

Regarding `O=C(c1ccco1)N1CCN(C(=O)c2snc3ccc(Cl)cc23)CC1`, the “hERG current change (%, negative = inhibition) at 10uM” value is -30.2%.

Turning to `Cc1cc(Br)c(NC(=O)CN2CC=C(c3ccccc3)CC2)c(Br)c1`, the “hERG current change (%, negative = inhibition) at 10uM” value is recorded as 15.3%.

On to `CCOc1ccc2nc(SCC(=O)c3ccc(O)cc3O)sc2c1`, for which the “hERG current change (%, negative = inhibition) at 10uM” value was determined as 14.5%.

On to `CC1CCc2sc(C(=O)N(C)CC(=O)Nc3cccc(F)c3)cc2C1` (centres unmarked), for which the “hERG current change (%, negative = inhibition) at 10uM” value is -11.3%.

On to `CC1(C)NC(=O)N(CCCCOc2ccc3c(c2)CCC3)C1=O`, for which the “hERG current change (%, negative = inhibition) at 10uM” value is given as 1.84%.

In the case of `Cc1ccc(CCNC(=O)CCS(=O)(=O)c2ccc(Br)cc2)cc1`, the “hERG current change (%, negative = inhibition) at 10uM” value is given as -6.65%.

For `N#Cc1cc2c(nc1SCc1ccc(Cl)cc1)CCCC2`, the “hERG current change (%, negative = inhibition) at 10uM” value is 13.2%.

With `O=C(CCl)NCc1c(Cl)cccc1-n1cccc1`, the “hERG current change (%, negative = inhibition) at 10uM” value was 3.87%.

As for `CCC(C)Sc1nnc(CNC(=O)C23CC4CC(CC(C4)C2)C3)n1C1CCCCC1` (centres unmarked), the “hERG current change (%, negative = inhibition) at 10uM” value was found to be 6.12%.

On to `C/C(N)=C(/C#N)C(=O)CSc1nc2ccccc2c(=O)n1CCCOC(C)C`, for which the “hERG current change (%, negative = inhibition) at 10uM” value is given as -21.2%.

With `CCOC(=O)C1=C(C)NC(C)=C(C(=O)OCC)C1C(=O)OCC(=O)N1CC(C)OC(C)C1` (centres unmarked), the “hERG current change (%, negative = inhibition) at 10uM” value amounted to 17.5%.

Regarding `O=C(Nc1ccc(Cl)cc1N1CCOCC1)C1CCCCC1`, the “hERG current change (%, negative = inhibition) at 10uM” value is on record as -4.12%.

Consider `CC(C)(C)OC(=O)NNC(=S)NC1CCCCC1`, for which the “hERG current change (%, negative = inhibition) at 10uM” value is reported as 21.4%.

With `CCOC(=O)/C(C#N)=C/c1ccc(SC)cc1`, the “hERG current change (%, negative = inhibition) at 10uM” value stood at 20.9%.

Regarding `Cc1cccc(OCc2nnc(SCC(=O)N3CCN(c4ccccc4)CC3)o2)c1C`, the “hERG current change (%, negative = inhibition) at 10uM” value is given as -5.21%.

With `Cc1cccc(N/C(=N\S(=O)(=O)c2ccccc2)C(F)(F)F)c1`, the “hERG current change (%, negative = inhibition) at 10uM” value was 2.55%.

For the molecule `O=C(O)c1ccc(CNS(=O)(=O)c2ccc3ccccc3c2)cc1`, the “hERG current change (%, negative = inhibition) at 10uM” value amounted to 21.7%.

With `CCOC(=O)c1c(C)oc2cc(Br)c(O)c(Br)c12`, the “hERG current change (%, negative = inhibition) at 10uM” value is listed as 8.34%.

`CCCn1nnnc1SCC(=O)Nc1ccc(F)cc1`: the “hERG current change (%, negative = inhibition) at 10uM” value was -25.3%.

Regarding `CCOC(=O)C(O)(c1ccc(N(CC)S(=O)(=O)c2ccc(C)cc2)cc1)C(F)(F)F` (centres unmarked), the “hERG current change (%, negative = inhibition) at 10uM” value was -36.3%.

As to `CC(/C=C/c1ccco1)=N\NC(=O)c1cccnc1`, the “hERG current change (%, negative = inhibition) at 10uM” value amounted to 12.5%.

`CC(OC(=O)/C=C/c1ccc2ccccc2n1)C(=O)NCc1ccccc1` (centres unmarked): the “hERG current change (%, negative = inhibition) at 10uM” value was found to be 11%.

In the case of `Cc1oc(-c2ccccc2F)nc1CS(=O)CC(=O)NC1CCCCC1` (centres unmarked), the “hERG current change (%, negative = inhibition) at 10uM” value is 9.5%.
